Laboratory results as given in PubChem BioAssay AID624296 (National Center for Advancing Translational Sciences (NCATS), 2012).
In all, about 350,000 compounds went through this assay and about 9,900 (2.8%) were called active. Inconclusive means that the source gave no clear call. Such entries were picked first, then a sample of the others. Calls follow the shape of the dose curve; as a rule, active = well fitted activation curve with a large enough effect; inconclusive = small, poorly fitted or top-dose-only effect; inactive = no such curve, though single readings can be large or run the other way. No potency is given beside an inconclusive call; the fits are too rough.

Assay: A quantitative high throughput screen for small molecules that induce DNA re-replication in MCF 10a normal breast cells. Also: nearly all actives have a fitted effect of over 50% in size.
Conditions: MCF 10A DNA re-replication, Hoechst nuclear intensity, 48 h; series mostly up to 46.1 µM
Potency is read from the fitted curve at half-maximal effect; tags tell the direction and shape of the fitted curve.

Row | SMILES | Potency
1 | O=C(Nc1cccnc1)c1sc(Nc2ccccc2)nc1-c1ccccc1 | active: 16.4 µM
2 | Cn1nc(C(F)(F)F)c(-c2ccc(Br)cc2)c1NC(=O)Nc1ccc(F)cc1F | active: 20.6 µM
3 | CC(C)(C)c1ccc(-n2ncc3c2CCCC3NC(=O)CCCn2cncn2)cc1 (stereo not drawn) | inactive
4 | CCCc1ccc(C(=O)NC(=O)c2ccccc2O)cc1 | inconclusive [activator, single point]
5 | Fc1ccc(CSc2nnc(-c3cnccn3)n2Cc2ccco2)cc1 | inactive
6 | Cc1cccc(NC(=S)N/N=C/c2ccc(Cl)c([N+](=O)[O-])c2)c1 | inconclusive [activator, partial curve, poor fit]
7 | Cc1ccc(Cn2nnc3c(=O)[nH]c(C4CCN(S(=O)(=O)c5cc(C)ccc5C)CC4)nc32)cc1 | inconclusive [activator, partial curve]
8 | CCOC(=O)C1(Cc2cccc(Cl)c2)CCCN(C(=O)CN2C(=O)CSC2=O)C1 (stereo not drawn) | inactive
9 | COc1cc2oc3ccc(C#Cc4ccc(N)cc4)cc3c(=O)c2cc1OC | active: 23.1 µM
10 | CCN(CC)C(=O)[C@H]1C[C@H](CC(=O)NCC23CC4CC(CC(C4)C2)C3)C(=O)N2CCc3c([nH]c4cc(CCC(=O)N(C)C)ccc34)[C@]12C | inconclusive [activator, full curve, poor fit]
11 | COc1ccc(-c2cc(=Nc3c(C)n(C)n(-c4ccccc4)c3=O)c3ccccc3o2)cc1 | inactive
12 | CCC(C)(C)NC(=O)CN(Cc1cccs1)C(=O)C(=O)Nc1ccc2c(c1)OCCO2 | inconclusive [activator, single point]
13 | CC1=C(C(=O)OCc2ccccc2)C(c2ccccc2OS(=O)(=O)c2ccc([N+](=O)[O-])cc2)NC(=O)N1CCCC(=O)O (stereo not drawn) | inconclusive [activator, full curve]
14 | CN(C(=O)COC(=O)c1cc(NS(=O)(=O)c2cc([N+](=O)[O-])ccc2Cl)ccc1O)C1CCCCC1 | inconclusive [activator, single point]
15 | COCCCNCCC(CCC(C)C)c1ccc2c(c1)OCO2 (stereo not drawn) | inactive
16 | COc1ccc(OCC(=O)OCC(=O)c2ccc(OC)c(F)c2)cc1 | inactive
17 | Cc1ccccc1C(=O)N1[C@@H](C(C)C)COc2cc(Br)ccc2S1(=O)=O | inconclusive [activator, full curve, poor fit]
18 | O=C(C1CCN(Cc2cccs2)CC1)N1CCN(Cc2ccc3c(c2)OCO3)CC1 | inconclusive [activator, partial curve]
19 | CN1C(=O)c2ccc(N3CCCC3)cc2C1=O | inactive
20 | CCN1CCN(S(=O)(=O)c2ccc(Cl)c(C(=O)Nc3ccc(OC(F)F)cc3)c2)CC1 | inconclusive [activator, single point]
21 | Cc1ccc(C)c(-c2cc(C(=O)NCc3cccs3)c3ccccc3n2)c1 | inconclusive [activator, partial curve, poor fit]
22 | CCCCCCSc1nsc(NC(=O)CC(C)C)n1 | inconclusive [activator, single point]
23 | CCOc1ccccc1NC(=S)N1CCN(c2ccc(OC)cc2)CC1 | inactive

Row | SMILES | Potency
24 | O=C(O)CSc1cc(NS(=O)(=O)c2ccc(Br)cc2)c2ccccc2c1O | inconclusive [activator, single point]
25 | Cc1cccc(OCC(=O)Nc2ccc3c(c2)OCO3)c1C | inactive
26 | CCOC(=O)c1cnc(-n2nc(C)cc2C)nc1N1CCOCC1 | inactive
27 | Cc1nn(CC(=O)NCc2cccc3ccccc23)c(=O)c2ccccc12 | inconclusive [activator, partial curve]
28 | Cc1ccc(S(=O)(=O)N2CCOCC2)cc1NC(=O)COC(=O)c1ccc(Br)o1 | inactive
29 | CCc1ccc(C(=O)Cn2ncc(Cl)c(Cl)c2=O)cc1 | active: 5.8 µM
30 | Cc1nn(C)c(C)c1NS(=O)(=O)c1ccc(Cl)s1 | inconclusive [activator, full curve, poor fit]
31 | COc1ccc2nc(NC(=O)c3cccc(-c4cc5ccccc5oc4=O)c3)sc2c1 | inconclusive [activator, partial curve]
32 | Cc1ccc(N(O)C(=O)NCCCCNC(=O)N(O)c2ccc(C)cc2)cc1 | inconclusive [activator, partial curve, poor fit]
33 | COc1ccc(C)cc1S(=O)(=O)N1CCC(C(=O)NCCC2=CCCCC2)CC1 | inactive
34 | O=C(N/N=C/c1ccc(O)cc1)c1cc(-c2ccccc2)nc2ccccc12 | inconclusive [activator, partial curve, poor fit]
35 | Cc1noc(C)c1COc1ccc(C(=O)OCC(=O)N2c3ccccc3NC(=O)C2(C)C)cc1 | inconclusive [activator, single point]
36 | CCC(C)(C)n1nnnc1C(c1ccc(C)cc1)N(Cc1ccco1)Cc1cccs1 (stereo not drawn) | inconclusive [activator, partial curve, poor fit]
37 | Cc1c(C)c2c(c(C)c1OC(=O)c1cccnc1)CC[C@@](C)(CCC[C@H](C)CCC[C@H](C)CCCC(C)C)O2 | inactive
38 | COc1ccc(/C=C(/NC(=O)/C=C/c2ccccc2)C(=O)NCCCCCC(=O)O)cc1 | inactive
39 | C/C(=N\NC(=S)Nc1c(C)cccc1C)c1cc2ccccc2o1 | inconclusive [activator, single point]
40 | O=C(CCN1CCN(c2ccccc2)CC1)Nc1cccc(Br)c1 | inactive
41 | Cc1ccc(SCc2c(-c3ccccc3)nn(C)c2Cl)cc1 | active: 8.2 µM
42 | CCn1c(SCC(=O)Nc2oc(-c3ccccc3)c(-c3ccccc3)c2C#N)nnc1-c1ccco1 | inconclusive [activator, partial curve, poor fit]
43 | CN(C)CCCN(C(=O)c1cc(Cl)sc1Cl)c1nc2cc3c(cc2s1)OCO3 | inconclusive [activator, single point]
44 | Cn1c2c(c3ccccc31)CC/C2=N\O | inconclusive [activator, partial curve, poor fit]
45 | COc1cccc(NC(=O)Cc2ccccc2)c1 | inconclusive [activator, single point]
46 | CC(=O)O[C@H]1[C@@H](O)[C@H](O)[C@H](Oc2c(O)c(C)c3c4c2[C@@H](C)CC[C@@H]4[C@@H](C)C[C@H]3C=C(C)C)O[C@H]1C | inconclusive [activator, single point]

Row | SMILES | Potency
47 | COc1ccc2oc3cc(C)[n+]([O-])c(-c4ccc(Br)cc4)c3c2c1 | inconclusive [activator, single point]
48 | COC(=O)c1cccc(Nc2cc(C)nc(-c3ccccc3O)n2)c1 | inconclusive [activator, single point]
49 | COc1ccc(NC(=O)c2noc(C(C)C)c2[N+](=O)[O-])cc1 | inconclusive [activator, single point]
50 | Cc1cccc(NC(=O)c2cc(Cl)ccc2[N+](=O)[O-])c1 | inactive
51 | COc1ccccc1NC(=O)c1ccccc1C(=O)N(C)Cc1ccccc1 | inactive
52 | CN(C)CCCN1c2ccccc2CCc2ccc(Cl)cc21 | inconclusive [activator, partial curve, poor fit]
53 | O=C(NN(C(=O)c1ccccc1)c1cccs1)c1ccccc1 | inactive
54 | CCN(c1ccccc1)S(=O)(=O)c1ccc(Cl)c(NC(=O)CNCc2ccccc2OC)c1 | active: 16.4 µM
55 | C=CCn1c(SCc2cc(=O)n3ccsc3n2)nc2scc(C3CC3)c2c1=O | inconclusive [activator, partial curve]
56 | O=C(c1ccccc1)c1ccc2nc(-c3ccc(NC(=O)c4ccccc4F)cc3)[nH]c2c1 | inconclusive [activator, single point]
57 | O=C(Cc1ccc(F)cc1)N[C@@H]1c2ccccc2CC[C@@H]1OCc1ccccc1 | inactive
58 | CCOC(=O)c1ccccc1N=Cc1c(O)c2ccccc2oc1=O | inactive
59 | O=C(NC1CCCCC1)C(c1ccc(F)cc1)N(Cc1cccs1)C(=O)CN1C(=O)c2ccccc2S1(=O)=O (stereo not drawn) | inconclusive [activator, single point]
60 | COc1ccc2nc(NN=C(C)c3ccccn3)cc(C)c2c1 | inconclusive [activator, partial curve]
61 | O=C(c1cccs1)N1N=C(c2ccccc2)CC1c1ccc(O)cc1 (stereo not drawn) | inconclusive [activator, single point]
62 | Cc1cc(C)c(NC(=S)NC(=O)c2ccc(-c3ccccc3)cc2)c(C)c1 | inconclusive [activator, single point]
63 | COc1ccc(NC2=Nc3ccccc3N3C2=Nc2c(c(C)nn2-c2ccc(C)cc2)C3c2cccnc2)cc1 (stereo not drawn) | active: 4.61 µM
64 | Nc1nonc1-n1nnc(C(=O)N/N=C/c2ccc(OCc3ccc(F)cc3)cc2)c1COc1ccccc1 | inconclusive [activator, partial curve]
65 | CCn1c(SCC(N)=O)nnc1-c1ccc(OC)c(OC)c1 | inactive
66 | O=C(CC(C(=O)NCc1ccccc1)c1nc2ccccc2c(=O)[nH]1)NCc1ccccc1 (stereo not drawn) | inactive
67 | Cc1ccc(C2CC(=O)C=C(NCC(C)C)C2)cc1 (stereo not drawn) | inconclusive [activator, partial curve, poor fit]
68 | COc1cccc(NC(=O)CSc2nnc(-c3ccoc3C)n2-c2ccccc2)c1 | inconclusive [activator, single point]
